In patent US20240209078A1 (Amgen, published 2024):

What was measured:
Test in all cases: cell-based or functional assay
human MSLN = human MSLN (human, UniProt Q13421 37-598)
human CDH3 = human CDH3 (human, UniProt P22223 108-829)
human CD3ε chain = human CD3ε chain (human, UniProt P07766)
[1] = biological target: T1, human CDH3 (Cadherin-3, P-Cadherin) (human, UniProt P22223 108-829)
human MSLN (mesothelin) [2] = biological target: T2, human MSLN (mesothelin) (human, UniProt Q13421 37-598)
[3] = biological target: T1, human CDH3 (Cadherin-3, P-Cadherin); remark: listed apart in the source
human MSLN (mesothelin) [4] = biological target: T2, human MSLN (mesothelin); remark: listed apart in the source

Sequence of human CD3ε chain (P07766 23-207 limits assumed): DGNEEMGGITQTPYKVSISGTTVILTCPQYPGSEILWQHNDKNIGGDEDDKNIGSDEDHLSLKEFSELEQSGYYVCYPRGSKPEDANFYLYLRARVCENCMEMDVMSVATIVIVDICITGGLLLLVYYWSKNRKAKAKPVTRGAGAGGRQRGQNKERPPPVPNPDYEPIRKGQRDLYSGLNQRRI

Row | fold selectivity gap, GSU KO CDH3 against GSU wt (human MSLN) | fold selectivity gap, GSU KO MSLN against GSU wt (human CDH3) | Activity reduction of single CD3 binding domain in molecule (first named: I2L) compared to high affinity binding domain I2C (human CD3ε chain) | Activity reduction of single CD3 binding domain in molecule (second named: I2M2) compared to high affinity binding domain I2C (human CD3ε chain) | Activity reduction of single CD3 binding domain in molecule (first named: I2M2) compared to high affinity binding domain I2C (human CD3ε chain) | Activity reduction of single CD3 binding domain in molecule (second named: I2L) compared to high affinity binding domain I2C (human CD3ε chain) | Binder | EC50 GSU KO CDH3 (cytotoxicity; cells CDH3-, MSLN+) (human MSLN) | EC50 GSU wt (cytotoxicity; cells CDH3+, MSLN+) (human MSLN) | EC50 GSU KO MSLN (cytotoxicity; cells CDH3+, MSLN-) (human CDH3) | EC50 GSU wt (cytotoxicity; cells CDH3+, MSLN+) (human CDH3) | cytotoxicity EC50, GSU KO MSLN cells [1] | cytotoxicity EC50, GSU KO CDH3 cells (human MSLN (mesothelin) [2]) | cytotoxicity EC50, HCT 116 KO MSLN cells [3] | cytotoxicity EC50, HCT 116 KO CDH3 cells (human MSLN (mesothelin) [4])
1 | 13 fold | 22 fold | ~98 fold | ~32 fold |  |  | MS 15-B12 CC × I2L × scFc × CH3 15-E11 CC × I2M2 (bispecific antibody) QVQLQESGPGLVKPSETLSLTCTVSGGSISSSSYFWGWIRQPPGKCLEWIGNIYYSGSSNYNPSLKSRVTISVDTSKNQFSLKLSSVTAADTAVYYCARLPRGDRDAFDIWGQGTMVTVSSGGGGSGGGGSGGGGSDIVMTQSPSSLSASVGDRVTITCRASQGISNYLAWYQQKPGKVPKLLIYAASTLQSGVPSRFSGSGSGTDFTLTISSLQPEDFATYYCQQSYSTPFTFGCGTKVEIKSGGGGSEVQLVESGGGLVQPGGSLKLSCAASGFTFNKYAMNWVRQAPGKGMEWVARIRSKYNNYATYYADAVKDRFTISRDDSKNTLYLQMNNLKTEDTAVYYCVRAGNFGSSYISYFAYWGQGTLVTVSSGGGGSGGGGSGGGGSQTVVTQEPSLTVSPGGTVTITCGSSTGAVTSGNYPNWIQKKPGQAPRGLIGGTKFLAPGTPARFSGSLEGGKAALTLSGVQPEDEAEYYCVLYYSNRWVFGSGTKLTVLGGGGSGGGGSGGGGS[sequence of human IgG1 Fc with R292C N297G V302C (EU numbers) omitted]GGGGSGGGGSGGGGSGGGGSGGGGSGGGGS[sequence of human IgG1 Fc with R292C N297G V302C (EU numbers) omitted]GGGGSGGGGSGGGGSQVQLVQSGAEVKKPGASVKVSCKASGYTFTNYWMNWVRQAPGQCLEWMGNIAYGVKGTNYNQKFQGRVTMTVDTSSSTAYMELSRLRSDDTAVYYCATRYFYVMDYWGQGTLVTVSSGGGGSGGGGSGGGGSDIQMTQSPSSLSASVGDRVTITCRASQDISNYLNWYQQKPGKVPKLLIYYTSRLHSGVPSRFSGSGSGTDFTLTISSLQPEDVATYYCVQYAQFPLTFGCGTKVEIKSGGGGSEVQLVESGGGLVQPGGSLKLSCAASGFTFNKYAINWVREAPGKGLEWVARIRSKYNNYATYYADAVKDRFTISRDDSKNTAYLQMNNLKTEDTAVYYCVRNANFGTSYISYFAYWGQGTLVTVSSGGGGSGGGGSGGGG[sequence of about 120 residues omitted] | 6 pM | 0.48 pM | 10.6 pM | 0.48 pM |  |  |  | 
2 |  |  |  |  |  |  | CH3 15-E11 CC × I2M2 × (G4S)3 × scFc × (G4S)3 × MS 15-B12 CC × I2M2 (bispecific antibody) QVQLVQSGAEVKKPGASVKVSCKASGYTFTNYWMNWVRQAPGQCLEWMGNIAYGVKGTNYNQKFQGRVTMTVDTSSSTAYMELSRLRSDDTAVYYCATRYFYVMDYWGQGTLVTVSSGGGGSGGGGSGGGGSDIQMTQSPSSLSASVGDRVTITCRASQDISNYLNWYQQKPGKVPKLLIYYTSRLHSGVPSRFSGSGSGTDFTLTISSLQPEDVATYYCVQYAQFPLTFGCGTKVEIKSGGGGSEVQLVESGGGLVQPGGSLKLSCAASGFTFNKYAINWVREAPGKGLEWVARIRSKYNNYATYYADAVKDRFTISRDDSKNTAYLQMNNLKTEDTAVYYCVRNANFGTSYISYFAYWGQGTLVTVSSGGGGSGGGGSGGGG[sequence of about 120 residues omitted]GGGSGGGGSGGGGS[sequence of human IgG1 Fc with R292C N297G V302C (EU numbers) omitted]GGGGSGGGGSGGGGSGGGGSGGGGSGGGGS[sequence of human IgG1 Fc with R292C N297G V302C (EU numbers) omitted]GGGGSGGGGSGGGGSQVQLQESGPGLVKPSETLSLTCTVSGGSISSSSYFWGWIRQPPGKCLEWIGNIYYSGSSNYNPSLKSRVTISVDTSKNQFSLKLSSVTAADTAVYYCARLPRGDRDAFDIWGQGTMVTVSSGGGGSGGGGSGGGGSDIVMTQSPSSLSASVGDRVTITCRASQGISNYLAWYQQKPGKVPKLLIYAASTLQSGVPSRFSGSGSGTDFTLTISSLQPEDFATYYCQQSYSTPFTFGCGTKVEIKSGGGGSEVQLVESGGGLVQPGGSLKLSCAASGFTFNKYAINWVREAPGKGLEWVARIRSKYNNYATYYADAVKDRFTISRDDSKNTAYLQMNNLKTEDTAVYYCVRNANFGTSYISYFAYWGQGTLVTVSSGGGGSGGGGSGGGG[sequence of about 120 residues omitted] |  |  |  |  | 136 pM | 91.5 pM | 0.24 pM | 1.1 pM
3 |  |  |  |  |  |  | MS 15-B12 CC × I2M2 × (G4S)3 × scFc × (G4S)3 × CH3 15-E11 CC × I2M2 (bispecific antibody) QVQLQESGPGLVKPSETLSLTCTVSGGSISSSSYFWGWIRQPPGKCLEWIGNIYYSGSSNYNPSLKSRVTISVDTSKNQFSLKLSSVTAADTAVYYCARLPRGDRDAFDIWGQGTMVTVSSGGGGSGGGGSGGGGSDIVMTQSPSSLSASVGDRVTITCRASQGISNYLAWYQQKPGKVPKLLIYAASTLQSGVPSRFSGSGSGTDFTLTISSLQPEDFATYYCQQSYSTPFTFGCGTKVEIKSGGGGSEVQLVESGGGLVQPGGSLKLSCAASGFTFNKYAINWVREAPGKGLEWVARIRSKYNNYATYYADAVKDRFTISRDDSKNTAYLQMNNLKTEDTAVYYCVRNANFGTSYISYFAYWGQGTLVTVSSGGGGSGGGGSGGGG[sequence of about 120 residues omitted]GGGSGGGGSGGGGS[sequence of human IgG1 Fc with R292C N297G V302C (EU numbers) omitted]GGGGSGGGGSGGGGSGGGGSGGGGSGGGGS[sequence of human IgG1 Fc with R292C N297G V302C (EU numbers) omitted]GGGGSGGGGSGGGGSQVQLVQSGAEVKKPGASVKVSCKASGYTFTNYWMNWVRQAPGQCLEWMGNIAYGVKGTNYNQKFQGRVTMTVDTSSSTAYMELSRLRSDDTAVYYCATRYFYVMDYWGQGTLVTVSSGGGGSGGGGSGGGGSDIQMTQSPSSLSASVGDRVTITCRASQDISNYLNWYQQKPGKVPKLLIYYTSRLHSGVPSRFSGSGSGTDFTLTISSLQPEDVATYYCVQYAQFPLTFGCGTKVEIKSGGGGSEVQLVESGGGLVQPGGSLKLSCAASGFTFNKYAINWVREAPGKGLEWVARIRSKYNNYATYYADAVKDRFTISRDDSKNTAYLQMNNLKTEDTAVYYCVRNANFGTSYISYFAYWGQGTLVTVSSGGGGSGGGGSGGGG[sequence of about 120 residues omitted] |  |  |  |  | 7.9 pM | 69.9 pM | 0.2 pM | 0.69 pM
4 | 58 fold | 284 fold |  |  | ~32 fold | ~98 fold | MS 15-B12 CC × I2M2 × scFc × CH3 15-E11 CC × I2L (bispecific antibody) QVQLQESGPGLVKPSETLSLTCTVSGGSISSSSYFWGWIRQPPGKCLEWIGNIYYSGSSNYNPSLKSRVTISVDTSKNQFSLKLSSVTAADTAVYYCARLPRGDRDAFDIWGQGTMVTVSSGGGGSGGGGSGGGGSDIVMTQSPSSLSASVGDRVTITCRASQGISNYLAWYQQKPGKVPKLLIYAASTLQSGVPSRFSGSGSGTDFTLTISSLQPEDFATYYCQQSYSTPFTFGCGTKVEIKSGGGGSEVQLVESGGGLVQPGGSLKLSCAASGFTFNKYAINWVREAPGKGLEWVARIRSKYNNYATYYADAVKDRFTISRDDSKNTAYLQMNNLKTEDTAVYYCVRNANFGTSYISYFAYWGQGTLVTVSSGGGGSGGGGSGGGG[sequence of about 120 residues omitted]GGGSGGGGSGGGGS[sequence of human IgG1 Fc with R292C N297G V302C (EU numbers) omitted]GGGGSGGGGSGGGGSGGGGSGGGGSGGGGS[sequence of human IgG1 Fc with R292C N297G V302C (EU numbers) omitted]GGGGSGGGGSGGGGSQVQLVQSGAEVKKPGASVKVSCKASGYTFTNYWMNWVRQAPGQCLEWMGNIAYGVKGTNYNQKFQGRVTMTVDTSSSTAYMELSRLRSDDTAVYYCATRYFYVMDYWGQGTLVTVSSGGGGSGGGGSGGGGSDIQMTQSPSSLSASVGDRVTITCRASQDISNYLNWYQQKPGKVPKLLIYYTSRLHSGVPSRFSGSGSGTDFTLTISSLQPEDVATYYCVQYAQFPLTFGCGTKVEIKSGGGGSEVQLVESGGGLVQPGGSLKLSCAASGFTFNKYAMNWVRQAPGKGMEWVARIRSKYNNYATYYADAVKDRFTISRDDSKNTLYLQMNNLKTEDTAVYYCVRAGNFGSSYISYFAYWGQGTLVTVSSGGGGSGGGGSGGGGSQTVVTQEPSLTVSPGGTVTITCGSSTGAVTSGNYPNWIQKKPGQAPRGLIGGTKFLAPGTPARFSGSLEGGKAALTLSGVQPEDEAEYYCVLYYSNRWVFGSGTKLTVL | 2.6 pM | 0.04 pM | 12.7 pM | 0.04 pM |  |  |  | 
